The campaign covered roughly 310,000 compounds. About 2,200 (0.71%) showed an effect of 50% or more. Effects have a minus sign here. The list shows a part of the results.
Target: human ether-à-go-go-related gene (hERG) potassium channel (human, UniProt Q12809)
Test: primary screen, population patch clamp on CHO cells stably expressing hERG

human ether-à-go-go-related gene (hERG) potassium channel, sequence (Q12809 whole entry, looked up): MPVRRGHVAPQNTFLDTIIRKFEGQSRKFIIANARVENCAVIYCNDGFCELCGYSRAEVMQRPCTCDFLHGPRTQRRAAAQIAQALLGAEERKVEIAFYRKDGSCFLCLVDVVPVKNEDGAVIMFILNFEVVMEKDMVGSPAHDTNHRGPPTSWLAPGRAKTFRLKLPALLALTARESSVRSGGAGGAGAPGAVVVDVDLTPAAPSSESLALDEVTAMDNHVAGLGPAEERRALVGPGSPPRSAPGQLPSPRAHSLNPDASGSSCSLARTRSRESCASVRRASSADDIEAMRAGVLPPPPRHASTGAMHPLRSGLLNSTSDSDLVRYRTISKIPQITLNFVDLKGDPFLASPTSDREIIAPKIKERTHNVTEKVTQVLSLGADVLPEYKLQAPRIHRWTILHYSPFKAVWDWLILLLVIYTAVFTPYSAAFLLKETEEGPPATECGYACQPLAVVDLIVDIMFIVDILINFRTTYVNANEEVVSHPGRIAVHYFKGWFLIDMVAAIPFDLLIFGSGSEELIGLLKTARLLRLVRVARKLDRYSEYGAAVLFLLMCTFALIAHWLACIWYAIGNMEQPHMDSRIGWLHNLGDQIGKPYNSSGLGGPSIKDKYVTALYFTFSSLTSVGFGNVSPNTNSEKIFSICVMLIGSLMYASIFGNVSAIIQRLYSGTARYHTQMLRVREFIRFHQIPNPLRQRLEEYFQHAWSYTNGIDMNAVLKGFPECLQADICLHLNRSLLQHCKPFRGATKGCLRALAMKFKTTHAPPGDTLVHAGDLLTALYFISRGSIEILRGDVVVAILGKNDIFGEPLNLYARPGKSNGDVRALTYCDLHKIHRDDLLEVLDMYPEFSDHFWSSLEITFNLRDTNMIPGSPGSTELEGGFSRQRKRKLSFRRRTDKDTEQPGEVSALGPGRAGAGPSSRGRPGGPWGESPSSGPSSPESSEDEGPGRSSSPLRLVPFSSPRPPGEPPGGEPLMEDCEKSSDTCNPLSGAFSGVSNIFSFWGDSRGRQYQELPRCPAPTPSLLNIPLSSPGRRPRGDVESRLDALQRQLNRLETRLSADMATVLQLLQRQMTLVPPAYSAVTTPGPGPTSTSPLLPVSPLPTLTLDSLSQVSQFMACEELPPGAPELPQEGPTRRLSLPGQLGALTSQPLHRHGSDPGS

In order of rising “hERG current change (%, negative = inhibition) at 1uM” value:
1. CCCN1CCC2(CC1)C(C#N)=C(N)Oc1c2sc2nc(C)cc(C)c12  -21.1%
2. Cc1c(C(=O)N2CCCc3ccccc32)oc2ccc(S(=O)(=O)N3CCOCC3)cc12  -11.9%
3. Cc1ccc(C(c2cc(Br)ccc2O)N2CCSCC2)cc1 (stereo not drawn)  -7.34%
4. CO/N=C/C(C#N)c1ncc(C(F)(F)F)cc1Cl (stereo not drawn)  -4.28%
5. O=C(Nc1cccc2ncccc12)c1ccc(-c2ccc(Br)cc2)o1  -1.73%
6. Oc1ccc(O)c(-c2cnns2)c1  -0.746%
7. OC1(c2ccc(F)cc2)CC2CCC(C1)N2Cc1nnnn1C1CCCC1 (stereo not drawn)  -0.602%
8. S=c1ccc2ccccc2[nH]1  -0.594%
9. COc1cc(C)nc(OCCNC(=O)COc2ccc(Cl)cc2C)n1  -0.137%
10. O=C(NCC1CC1)c1onc(CSc2ccc(F)cc2)c1C(=O)NCC1CC1  0.191%
11. Cc1nc(-c2ccccc2)sc1C(=O)/C=C/N(C)C  0.555%
12. CN(C)/C=C/C(=O)c1ccccc1OCc1cnc(Cl)s1  0.765%
13. COCC(=O)NC1CCN(C(=O)NCc2ccccc2)CC1  2.12%
14. COc1ccccc1-c1nnc2sc(COc3ccc(F)cc3)nn12  2.52%
15. CCC(C)Nc1ncnc2c1cnn2Cc1ccc(Cl)cc1 (stereo not drawn)  2.58%
16. COc1cc(-c2cc(-c3ccc(O)cc3)nc(N)c2C#N)ccc1O  2.7%
17. Cc1ccc(NC(=O)CSc2ncc3ccccn23)cc1C  3.69%
18. Cc1c(-c2ccc(Cl)cc2)oc(=O)c2c(N)n(-c3ccccc3)nc12  3.8%
19. CCOc1cc(-c2nc(C)c(C(C)=O)n2O)ccc1OCC(=O)Nc1cccc(C)c1  3.9%
20. CCN1C(=O)[C@H]2[C@@H](c3ccc(Cl)cc3)N3C(=O)CN(CCOC)C(=O)[C@@]3(Cc3ccccc3)[C@H]2C1=O  4.24%
21. CCOC(=O)N1CCN(c2c(N3CCN(C(=O)OCC)CC3)c(=O)c2=O)CC1  4.35%
22. CCC1(c2ccc(F)cc2)NC(=O)N(CC(=O)NCc2ccccc2Cl)C1=O (stereo not drawn)  4.49%
23. O=C(c1ccco1)N1CCN(c2ncnc3c(-c4ccccc4)nsc23)CC1  4.97%
24. CCN(C(=O)CCS(=O)(=O)c1cccc2nonc12)c1ccc(C)c(C)c1  5.11%
25. CCC1Oc2ccccc2N(CC(=O)NCCCN2CCN(CC)CC2)C1=O (stereo not drawn)  5.96%
26. O=C(Cc1ccccc1)Nc1nc(=O)c2ccccc2s1  6.37%
27. COc1ccc(NC(=O)c2cc(-c3cc(C)cc(C)c3O)n[nH]2)cc1Cl  6.46%
28. CC1(c2ccccc2Cl)NC(=O)N(CC(=O)Nc2ccc3c(c2)OCO3)C1=O (stereo not drawn)  8.46%
29. C1=CC2CCC1ON2c1ccccc1 (stereo not drawn)  8.77%
30. CC1Sc2ccc(S(=O)(=O)CCC(=O)NCc3ccc(Cl)cc3)cc2NC1=O (stereo not drawn)  8.85%
31. COCCC(=O)N1CCC(Oc2ccc(C(=O)N3CCCCCC3)cc2)CC1  8.92%
32. Br.Cc1ccc(Nc2nc(-c3sc(N)nc3C)cs2)cc1  8.96%
33. Cc1cc(C)n2nc(SCC(=O)N3CCOCC3)nc2n1  9.84%
34. CCOc1ccc(N2C(=O)CC(Sc3nc(-c4cccs4)cc(C(F)(F)F)c3C#N)C2=O)cc1 (stereo not drawn)  9.85%
35. CCOC(=O)C1=C(C)OC(N)=C(C#N)C1c1cc2ccccc2nc1N1CCCCC1 (stereo not drawn)  10.2%
36. Cc1cc(C)n(-c2ncc(C#N)cn2)n1  10.7%
37. CN(C(=O)COC(=O)C12CC3CC(CC(C3)C1)C2)c1c(N)n(Cc2ccccc2)c(=O)[nH]c1=O  10.8%
38. CCOC(=O)C1=NN(c2ccccc2)C(c2ccccc2)CC1=O (stereo not drawn)  10.9%
39. Cc1cc(C)c2c(c1)cc(C)c1nnc(SCC(=O)N3CCCc4ccccc43)n12  11.1%
40. Cc1ccc(C(=O)CSC2=C(C#N)C(c3ccco3)C3=C(CC(C)(C)CC3=O)N2)cc1 (stereo not drawn)  11.5%
41. CCOc1ccccc1C(=O)N[C@H](C(=O)OCc1cc([N+](=O)[O-])cc2c1OCOC2)C(C)C  11.8%
42. C=CCn1c(Oc2ccc(C=O)cc2OCC)nc2c1c(=O)n(C)c(=O)n2C  11.9%
43. CCCCC/C(=N/O)c1c(C)[nH]c2ccccc12  12.2%
44. CCOc1ccc(-c2nnc(NC(=O)Cc3cc(OC)c(OC)c(OC)c3)o2)cc1  12.8%
45. CCOC(=O)C(C(=O)OCC)N(C#N)c1nc(N(C)C)nc(N(C)C)n1  13.1%
46. CCC(=O)Nc1nnc(S(=O)(=O)N2CCCCCC2)s1  13.4%
47. NC(=O)COc1ccc(/C=C2\C(=O)ON=C2c2ccccc2)cc1  13.4%
48. Cn1cccc1/C=C1\SC(=S)N(NC(=O)c2ccc(F)cc2)C1=O  13.6%
49. COc1ccccc1CNC(=O)CSC1=NCCS1  14.4%
50. O=S1(=O)CC/C(=N/Nc2ccccn2)c2cc(F)ccc21  14.5%
51. CCC(Sc1ccc2nnc(-c3cccnc3)n2n1)C(=O)O (stereo not drawn)  14.5%
52. CC(C)(C)NC(=O)N1c2ccccc2Sc2ccccc21  15%
53. Cc1cc(SCC(=O)c2ccccc2)nc(C)n1  15.6%
54. Cc1ccc(-c2cc(C(=O)Nc3cc(C)ccc3O)no2)cc1  15.7%
55. O=c1[nH]c(C2CCCN(S(=O)(=O)c3ccccc3)C2)nc2c1nnn2Cc1cccc(Cl)c1 (stereo not drawn)  16%
56. O=C(O)COc1ccc2c(c1)O/C(=C\c1cccs1)C2=O  16.4%
57. CC(C)(C)C(=O)COC(=O)C1CC(=O)N(c2ccccc2)C1 (stereo not drawn)  17%

— paper PMC4336329 (PLoS ONE, 2015)
